Experimental data: the supplement of paper PMC12217912
This is one part of the list. The full chains were built here from the parent and the listed change. Inactive controls read about 0.05.

B1: TEV protease; numbered along this chain (parent)
chain: MGESLFKGPRDYNPISSSICHLTNESDGHTTSLYGIGFGPFIITNKHLFRRNNGTLVVQSLHGVFKVKDTTTLQQHLVDGRDMIIIRMPKDFPPFPQKLKFREPQREERICLVTTNFQTKSMSSMVSDTSCTFPSGDGIFWKHWIQTKDGQCGSPLVSTRDGFIVGIHSASNFTNTNNYFTSVPKNFMELLTNQEAQQWVSGWRLNADSVLWGGHKVFMVKPEEPFQPVKEATQL

Variants of: B1
Test: raw area under fraction-flipped curve 0-4 h after induction (AUC4h, not background-subtracted), DNA-recorder readout of cleavage of the substrate (dimensionless); higher = more cleavage of the substrate by the protease variant
Details: temperature: 34 °C; time window: 0-4 h after rhamnose induction
Protocol: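 In vivo DNA recorder in E. coli TOP10(DE3) ΔrhaA at 34 °C. Each TEVp single-site mutant (parent TEVp 0) is paired with a single-site variant of the 7-mer TEVs (canonical ENLYFQ|S). The substrate sits between flexible linkers in a Bxb1-sfGFP-TEVs-SsrA fusion, so cleavage stabilises Bxb1 and speeds flipping of a recombination array, read by NGS. The value is the raw area under the fraction-flipped curve over 0-4 h after rhamnose induction (AUC4h), with ≥20 reads per time point. It is not background-subtracted; inactive controls average about 0.047.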
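Note: Bxb1 expression induced with 0.2% (w/v) L-rhamnose at OD600 near 0.5, cultures sampled hourly, flipped fraction per protease–substrate barcode pair counted by paired-end Illumina sequencing.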

Row | Variant | area with substrate ENLCFQS | area with substrate ENLFFQS | area with substrate ENLKFQS | area with substrate ENLNFQS | area with substrate ENLPFQS | area with substrate ENLSFQS | area with substrate ENLVFQS | area with substrate ENLDFQS | area with substrate ENLEFQS | area with substrate ENLMFQS | area with substrate ENLQFQS | area with substrate ENLRFQS | area with substrate ENLWFQS | area with substrate ENLGFQS | area with substrate ENLHFQS | area with substrate ENLIFQS | area with substrate ENLLFQS | area with substrate ENLTFQS
1 | T114D | 0.076 | 0.0689 | 0.0663 | 0.0721 | 0.0459 | 0.0412 | 0.0729 |  |  |  |  |  |  |  |  |  |  | 
2 | V57A | 0.0747 | 0.0935 | 0.0786 | 0.0662 | 0.049 | 0.0561 | 0.075 | 0.0594 | 0.0564 | 0.0723 | 0.0734 | 0.0671 | 0.0648 |  |  |  |  | 
3 | F218Y | 0.0615 | 0.0852 | 0.0779 |  | 0.0218 | 0.0577 |  |  |  | 0.0459 | 0.0526 |  | 0.0661 | 0.0626 | 0.0713 |  |  | 
4 | L211K | 0.0408 | 0.0939 | 0.0639 | 0.0737 | 0.0651 | 0.0502 |  | 0.0619 |  |  |  |  | 0.0636 |  | 0.0791 | 0.0771 | 0.0719 | 
5 | L211S | 0.0551 | 0.125 |  |  | 0.0606 |  |  | 0.0694 |  |  |  |  |  |  |  |  |  | 
6 | S158W | 0.053 | 0.0661 | 0.0419 | 0.0592 | 0.0535 | 0.0462 |  | 0.0646 | 0.0555 | 0.0359 | 0.0396 | 0.043 | 0.052 | 0.0514 | 0.0583 | 0.0601 | 0.0476 | 
7 | I86A | 0.0613 | 0.067 | 0.0602 | 0.0555 |  | 0.0668 |  |  |  | 0.0404 |  |  |  |  | 0.0461 |  |  | 0.0545
8 | P222N | 0.0584 | 0.0879 | 0.0768 | 0.0644 | 0.0643 | 0.0569 |  | 0.0656 |  |  | 0.0688 | 0.0862 | 0.0848 |  | 0.0737 | 0.0829 | 0.0695 | 
9 | E189S | 0.0685 |  | 0.0718 | 0.0592 |  | 0.0822 |  |  | 0.0402 |  |  |  |  |  | 0.0296 | 0.074 |  | 
10 | E189W | 0.0779 | 0.0807 | 0.0865 | 0.0666 | 0.0513 | 0.0686 | 0.0883 | 0.0625 |  |  | 0.0699 | 0.0637 |  | 0.0685 | 0.0642 | 0.0728 |  | 
11 | I139L | 0.0654 | 0.086 | 0.0649 | 0.0707 | 0.0707 | 0.0708 |  | 0.0638 |  |  | 0.0428 | 0.0496 |  | 0.0567 | 0.068 | 0.0907 | 0.0825 | 
12 | D82I | 0.0558 |  |  | 0.0657 |  | 0.0418 |  |  |  | 0.0386 |  | 0.0493 |  |  |  |  | 0.0496 | 0.0633
13 | P134K | 0.0728 | 0.0636 | 0.0844 | 0.057 | 0.0532 | 0.0772 |  | 0.0605 | 0.0619 | 0.0914 |  | 0.0621 |  |  | 0.0494 | 0.0634 | 0.0755 | 
14 | Q151F | 0.0498 |  | 0.0671 |  |  |  |  |  |  | 0.0778 |  |  |  | 0.0459 |  | 0.0609 |  | 
15 | K120M | 0.0966 | 0.0614 | 0.0857 | 0.0681 | 0.0644 | 0.0478 |  | 0.0702 | 0.0551 | 0.0779 |  |  | 0.0486 |  | 0.0557 | 0.0365 |  | 
16 | Q197E | 0.061 | 0.0696 | 0.0694 | 0.0622 | 0.0647 | 0.0657 |  | 0.063 | 0.0555 |  | 0.0696 |  |  |  | 0.0699 |  | 0.0572 | 

Row | Variant | area with substrate ENLCFQS | area with substrate ENLFFQS | area with substrate ENLKFQS | area with substrate ENLNFQS | area with substrate ENLPFQS | area with substrate ENLSFQS | area with substrate ENLVFQS | area with substrate ENLDFQS | area with substrate ENLEFQS | area with substrate ENLMFQS | area with substrate ENLQFQS | area with substrate ENLRFQS | area with substrate ENLWFQS | area with substrate ENLGFQS | area with substrate ENLHFQS | area with substrate ENLIFQS | area with substrate ENLLFQS | area with substrate ENLTFQS
17 | V126L | 0.0629 | 0.0792 | 0.0796 | 0.0701 |  |  | 0.116 | 0.0582 | 0.0599 |  |  |  | 0.073 |  |  | 0.0966 | 0.0573 | 
18 | K68N | 0.0615 | 0.0767 | 0.0943 | 0.0627 |  |  |  | 0.0595 |  |  |  |  |  | 0.0672 |  | 0.0779 |  | 
19 | P225S | 0.0969 | 0.079 | 0.0915 |  |  | 0.0441 |  | 0.0704 |  |  |  | 0.0971 | 0.0637 |  | 0.0831 | 0.0751 | 0.0764 | 
20 | Y179W | 0.0706 | 0.0663 |  | 0.0545 | 0.0584 | 0.077 |  |  |  |  |  |  |  |  |  |  |  | 
21 | N178T | 0.0622 |  | 0.0655 | 0.0579 | 0.057 |  |  |  | 0.0668 |  |  | 0.0634 | 0.0612 | 0.0584 | 0.0743 |  | 0.0741 | 
22 | T129Y | 0.083 | 0.0472 | 0.0765 | 0.0449 |  | 0.0641 |  | 0.0968 | 0.0661 |  |  | 0.0757 | 0.0622 | 0.0606 |  | 0.0951 | 0.0605 | 
23 | H76P | 0.0545 | 0.0588 | 0.0695 | 0.057 |  | 0.0452 |  |  | 0.0517 |  | 0.0499 | 0.0606 | 0.057 |  | 0.0596 |  | 0.0435 | 
24 | Q194K | 0.0731 | 0.0809 | 0.0828 | 0.0574 |  | 0.0568 |  | 0.0636 | 0.0688 | 0.075 | 0.0653 | 0.0715 |  |  |  |  |  | 
25 | D149C | 0.0777 | 0.108 | 0.0829 | 0.0373 |  | 0.0859 |  | 0.0658 | 0.0569 |  |  |  | 0.0646 |  | 0.0815 | 0.098 |  | 
26 | N206E | 0.0735 | 0.0956 | 0.0876 | 0.0592 |  | 0.0533 | 0.0772 | 0.069 | 0.0618 |  | 0.0784 | 0.0649 | 0.0772 |  | 0.0839 | 0.083 |  | 
27 | N206I | 0.119 | 0.0978 | 0.0787 | 0.053 | 0.0561 | 0.0632 |  | 0.0717 | 0.0753 | 0.0656 | 0.0712 |  | 0.0564 |  | 0.0576 | 0.0521 | 0.0509 | 
28 | Q75T | 0.0577 | 0.0797 |  | 0.0567 | 0.0491 | 0.0651 |  | 0.064 |  |  |  |  | 0.0582 |  | 0.0443 |  |  | 0.0666
29 | K185W | 0.0813 | 0.0763 | 0.0767 | 0.0638 | 0.0656 | 0.0657 | 0.0736 | 0.0781 | 0.0905 | 0.0808 | 0.0817 |  | 0.0633 |  | 0.0504 | 0.1 |  | 0.0533
30 | N172F | 0.0552 |  | 0.057 |  | 0.057 |  | 0.0644 |  |  | 0.0615 |  | 0.0604 |  | 0.0785 | 0.0769 |  |  | 
31 | Q227N | 0.0501 | 0.077 | 0.0802 | 0.0637 | 0.0635 | 0.0608 |  | 0.0713 |  | 0.0774 | 0.0628 | 0.067 | 0.0569 |  | 0.0865 | 0.0723 | 0.087 | 
32 | Q227Y | 0.0657 | 0.0956 | 0.0728 | 0.0674 | 0.0667 | 0.063 | 0.0553 |  |  |  | 0.0645 | 0.0643 | 0.0702 |  | 0.069 | 0.0855 |  | 
